Data taken from article PMC12040169 (PLOS Biology, 2025).
This is one part of the list.

Test system: T1, C. trachomatis L2/434/Bu expressing GFP (CTL2-GFP)
T1 construct: L2/434/Bu GFP intracellular growth in HeLa cells
Design: species or system HeLa; C. trachomatis total inclusion area by high-content imaging, normalised to DMSO
Conditions: total inclusion area; 28.5 h, 10 µM; inhibitor
How it was run: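 High-content images of fixed, Hoechst-stained infected cultures supply inclusion area and count (growth) plus nuclei number (viability), complementing bulk GFP/resorufin fluorescence. MIC determination is unchanged from the primary assay.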

SMILES	% of control remaining
COc1ccc(Sc2nccc(C(F)(F)F)n2)cc1OC [CBK093772]	105.403
C[C@@H](NC(=O)CCN1C(=O)[C@@H]2Cc3ccccc3CN2C1=O)C(=O)O [CBK286709]	126.926
CC(=O)Nc1cccc(-c2nccnc2NS(=O)(=O)c2cccs2)c1 [CBK050760]	95.6963
Cc1nn(C)c2ncc(S(=O)(=O)Nc3cc(C(N)=O)ccc3Cl)cc12 [CBK306104]	65.0707
CCNC(=O)C1(Cc2ccccc2-c2ccccc2)CCN(C(=O)c2csc(C)c2)CC1 [CBK285698]	117.451
OC1CC(c2cc(NCCc3nc4ccccc4o3)ncn2)C1 (stereo not shown) [CBK306573]	33.337
CC(C)(C)c1ccc(CN2CCN(C(=O)c3ccc(-c4ccc(S(C)(=O)=O)cc4)cn3)CC2)cc1 [CBK160487]	75.3061
O=C(NC1CC1)[C@H]1CN2CCC1C[C@@H]2Cn1cc(C2(O)CCCC2)nn1 (stereo partly shown) [CBK289092]	104.721
Cc1cccc(CN2CCC(NC(=O)Cn3cc(Br)ccc3=O)CC2)c1 [CBK305669]	95.4893
CCOc1ncccc1C(=O)Nc1cnc2c(cnn2C(C)C)c1 [CBK306210]	52.6866
O=C(O)c1ccc(OCCN2C3=NCCN3c3ccccc32)cc1 [CBK286629]	84.072
O=S(=O)(Nc1nccnc1Cl)c1ccccc1Cl [CBK149698]	88.833
COc1ccc(OC)c(C(=O)N2CCNC(=O)C2Cc2ccc(-c3cccs3)cc2)c1 (stereo not shown) [CBK285803]	87.3472
N#C/C(=C\c1ccc(-c2ccc3c(c2)C(=O)NC3=O)o1)c1nc2ccccc2[nH]1 [CBK262965]	121.287
Cc1ccccc1-n1ncc2c1ncn1nc(-c3ccccc3)nc21 [CBK287797]	100.687
O=C(CN1C(=O)CCC1=O)Nc1nnc(-c2ccc3c(c2)CCCC3)o1 [CBK287427]	114.852
O=S(=O)(Nc1cc(Cl)nc(Cl)c1)c1ccc(-c2cc(C(F)(F)F)on2)s1 [CBK062215]	106.186
Cc1nc(-c2ccc(NCC(O)c3ccco3)nc2)[nH]c(=O)c1C (stereo not shown) [CBK305254]	12.6206
CN(C)c1ccc(/C=N/NC2=NC(=O)CS2)cc1 [CBK019273]	54.0041
Cc1cc(C(=O)N2CCC(n3c(=O)[nH]c4ccccc43)CC2)no1 [CBK149714]	124.41
CCOc1ccc(N2C(=O)CC(N3CCN(c4ccccn4)CC3)C2=O)cc1 (stereo not shown) [CBK263285]	84.4574
COc1nccnc1OC1CCN(CCCO)CC1 [CBK084254]	101.652
N[C@@H]1CCCN(C(=O)c2ccccc2)[C@H]1c1ccccc1F [CBK281405]	62.1218
CC(C)c1cc(C(=O)NCC2CCCN(C(C)C)C2)n(C)n1 (stereo not shown) [CBK282566]	122.67
CS(=O)(=O)N1CCC(C(=O)NCCN2CCOCC2)CC1 [CBK270151]	106.767
O=S(=O)(Nc1cccc2nsnc12)c1cccs1 [CBK017018]	47.4023
COCCN1CC2=C(C1=O)C(c1ccc(F)cc1)NC(=O)N2 (stereo not shown) [CBK249447]	96.1572

SMILES	% of control remaining
CC(=O)Nc1cccc(-n2nnnc2SCc2cnn(C)c2)c1 [CBK305471]	59.6291
COc1ccc(C(=O)N2CCC3(CCN(C(=O)CCSC)C3)C2)cc1OC (stereo not shown) [CBK131786]	101.872
O=C1CSC(Nc2nc(-c3ccccc3)cs2)=N1 [CBK026880]	55.8834
COCC(C)NC(=O)Cn1c(-c2cccs2)cc2cccnc21 (stereo not shown) [CBK282557]	109.575
Cc1csc2c(C3CCCN(C(=O)c4cc[nH]n4)C3)nc(C)n12 (stereo not shown) [CBK285238]	112.588
CCOc1ccc(-n2nnnc2SCC(=O)c2ccc(Cl)c(Cl)c2)cc1 [CBK141942]	65.8773
COc1cc(/C=C2/SC(=N)NC2=O)ccc1OCc1ccccc1[N+](=O)[O-] [CBK262181]	98.0915
COc1ccccc1N1CCN(C(=O)c2ccc3c(c2)no[n+]3[O-])CC1 [CBK091510]	73.4363
Cn1cc(CC(=O)N2CCCc3ccccc32)c2ccccc21 [CBK200349]	108.473
CCN(Cc1ccncc1)C(=O)NCc1ccc(F)cc1 [CBK155146]	87.9341
Cc1nn(CC(=O)N2CCC(C)CC2)c(=O)c2cc3occc3n12 [CBK283654]	93.379
COc1ccccc1-c1[nH]nc(O)c1Cc1c(Cl)cccc1Cl [CBK107933]	88.6569
O=C1CNC(=O)C2(C/C=C/C[C@H]3COCC[C@H]3N1)CCN(Cc1cccc3[nH]ccc13)CC2 [CBK292073]	83.6802
COc1cc(CN2CCCC3(CCN(C(=O)Cc4c[nH]c5ccccc45)C3)C2)cc(OC)c1OC (stereo not shown) [CBK132027]	90.7535
COc1cccc(N2CCN(CC(CC(=O)Nc3ccccc3)C(=O)O)CC2)c1 (stereo not shown) [CBK286813]	115.265
CN1CCN(S(=O)(=O)c2ccc(C(C)(C)C)cc2)CC1 [CBK051237]	82.3749
CCCCOc1ccc(S(=O)(=O)Nc2ccc(-c3cn4ccccc4n3)cc2)cc1 [CBK264374]	109.341
N=c1n(CCN2CCCCC2)c2ccccc2n1CC(O)COc1ccccc1 (stereo not shown) [CBK262451C]	103.353
COc1ccccc1N1CCN(CC(CC(=O)Nc2ccc3c(c2)OCO3)C(=O)O)CC1 (stereo not shown) [CBK286822]	101.506
COCCN1C(=O)C2(CC(=O)N(CC(=O)N(C)C)C2=O)c2cc(F)ccc21 (stereo not shown) [CBK075428]	112.791
COc1ccc2[nH]c(=O)c(CN(CCCN3CCOCC3)C(=O)Nc3cccc(Cl)c3)cc2c1 [CBK135402]	89.6942
Cc1ncoc1C(=O)N1CCC2(C/C=C/C[C@H]3COCC[C@H]3NC(=O)CNC2=O)CC1 [CBK292086]	119.927
O=C(CN1CCCC1=O)NC(Cc1cccs1)c1nccs1 (stereo not shown) [CBK282177]	75.5788
COc1ccc(-c2cc(C(=O)NCCc3ccc(N)cc3)cnc2-c2ccc(Cl)cc2)cc1 [CBK037561]	128.265
CS(=O)(=O)N(CC(=O)NC1CCCCC1)c1cccc2ccccc12 [CBK263770]	96.176
CCOc1cccc(-c2cncc(NCCO)n2)c1 [CBK066075]	102.798
CCCCC12CN3CCN(CC(C3)/C1=N\N=C1/C3CN4CCN(C3)CC1(CCCC)C4)C2 [CBK264981]	98.628

SMILES	% of control remaining
CSCCC(=O)N1CCC2(CCN(Cc3ccccc3)C2)C1 (stereo not shown) [CBK136838]	79.0059
CCc1ccccc1-c1cccc(C(=O)NCC(O)CN(C)C)c1 (stereo not shown) [CBK306604]	48.112
O=C(CN1CCC(NC(=O)c2cccs2)CC1)Nc1ccc(F)c(F)c1 [CBK305991]	77.2014
CCOc1ccc(CC(=O)NC[C@H]2CC[C@H](c3cc(C(N)=O)c4ccccc4n3)CC2)cc1 [CBK285899]	113.1
CN(C)CC(Oc1ccccc1)C(=O)c1ccccc1 (stereo not shown) [CBK011935C]	87.2515
O=C(COc1ccccc1)NCC1(c2ccccc2)CCOCC1 [CBK067407]	56.9608
Cc1ccc2oc(-c3cc(NC(=S)NC(=O)c4ccc([N+](=O)[O-])cc4)ccc3O)nc2c1 [CBK263923]	110.811
Cc1nn(C)cc1CN(Cc1ccccc1F)CC1CCCO1 (stereo not shown) [CBK283014]	86.916
CC(=O)OC1CCn2c1nc1ccccc12 (stereo not shown) [CBK113621]	92.4052
O=[N+]([O-])c1ccc(CN2CCC(Oc3nccnc3OCc3ccc(Cl)c(Cl)c3)CC2)cc1 [CBK083107T]	60.0813
CCNS(=O)(=O)c1ccc2c(c1)N(Cc1cccnc1C)CC2 [CBK306020]	35.7142
COc1ccc(-c2c(-c3ccc(O)cc3O)n[nH]c2C)cc1OC [CBK265552]	92.3464
Cc1cc([N+](=O)[O-])ccc1/N=C\c1ccc(C(=O)O)cc1 [CBK262058]	97.995
CCn1ncc(Br)c1C(=O)Nc1ccc(Cl)cn1 [CBK265826]	68.3608
CCOc1ccc(Cl)cc1CN(C)C(=O)NCC(C)CN(C)C (stereo not shown) [CBK307500]	86.9389
O=C(NCC1(c2ccccc2F)CCCC1)c1cc[nH]c(=O)c1 [CBK281378]	108.981
COC(=O)[C@H]1CN(C(=O)c2cccnc2)C[C@@H]1c1ccc(F)cc1 [CBK283788]	99.9924
O=S(=O)(NCCSCc1ccco1)c1ccc(Cl)cc1 [CBK232206]	111.577
COc1ccc(SCCCCN2CCC3(CC2)OCCc2c3[nH]c3ccccc23)cc1 [CBK113464T]	0
OC(CSc1ccccc1)CN1CCN(Cc2ccc3c(c2)OCO3)CC1 (stereo not shown) [CBK074761]	90.6072
O=C(NC(=O)C1CCNCC1)Nc1ccccc1 [CBK034794]	107.771
CN(C)CC(=O)N1CCc2nc(-c3cccc(F)c3)sc2C1 [CBK281801]	104.322
CC(C)CC(=O)N1CCC(n2c(=O)oc3ccc(Cl)cc32)CC1 [CBK285477]	85.2128
C[C@H](Nc1nc(-c2cc(C(F)(F)F)cc(C(F)(F)F)c2)cnc1N)c1ccccc1 [CBK063768]	83.1143
CCn1c(=O)n(CC2(O)CCCOC2)c2cc(S(=O)(=O)N(C)C)ccc21 (stereo not shown) [CBK304788]	69.2246
